Reference: the supplement of paper PMC10369915
This is one part of the list. Cut-off read from the data, not from the text of the source: active = 3.2 or more and inactive = the rest. Only a few entries rise above the background.

Experiments:
Test in all cases: enrichment score (SH2-bound / input frequency) (ratio); bacterial display of known human phosphotyrosine sites (pTyr-Var adds point mutants) read by sequencing; higher = stronger binding; tyrosines were phosphorylated by kinases first
Details in all cases: peptide library: pTyr-Var
[1] = molecular target: SHP2 C-SH2 domain E139D
[2] = molecular target: SHP2 C-SH2 domain wild-type
[3] = molecular target: SHP2 N-SH2 domain L43F
[4] = molecular target: SHP2 N-SH2 domain T42A
[5] = molecular target: SHP2 N-SH2 domain T52S
[6] = molecular target: SHP2 N-SH2 domain wild-type

Measured: enrichment score
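Note: displayed peptides selected on beads carrying the immobilized SH2 domain, with library peptides lacking any tyrosine serving as negative controls.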

DSNLIYSQIWS [FCRL3_Y662_P660L]
inactive: [1] 0.948 | [2] 0.928 | [3] 0.905 | [4] 0.974 | [5] 0.971 | [6] 1.03

IALSKYGRVKR [FGF6_Y186]
inactive: [1] 0.371 | [2] 0.287 | [3] 0.283 | [4] 0.379 | [5] 0.306 | [6] 0.328

HHIDYYKKTTN [FGFR1_Y654]
inactive: [1] 0.674 | [2] 0.519 | [3] 0.39 | [4] 0.478 | [5] 0.785 | [6] 0.895

RSGNCYLDIRP [FBN1_Y1535]
inactive: [1] 0.799 | [2] 0.955 | [3] 0.689 | [4] 0.762 | [5] 0.627 | [6] 1.01

GYKVRYATGSI [FGFR1_Y210_W213G]
inactive: [1] 1.38 | [2] 0.974 | [3] 1.07 | [4] 1.02 | [5] 1.19 | [6] 1.11

HHIDYYKETTN [FGFR1_Y654_K656E]
inactive: [1] 1.37 | [2] 1.18 | [3] 1.13 | [4] 1.2 | [5] 1.52 | [6] 1.14

YASALYGQRRS [FGF11_Y162_R163G]
inactive: [1] 0.248 | [2] 0.217 | [3] 0.278 | [4] 0.248 | [5] 0.261 | [6] 0.293

TRSYDYMEGED [FGF7_Y58_G62E]
inactive: [1] 0.525 | [2] 0.613 | [3] 0.705 | [4] 0.631 | [5] 0.513 | [6] 0.628

RHTRSYDYTEG [FGF7_Y56_M59T]
inactive: [1] 0.671 | [2] 0.75 | [3] 0.466 | [4] 0.604 | [5] 0.673 | [6] 0.628

CSGNCYLDIRP [FBN1_Y1535_R1530C]
inactive: [1] 2.54 | [2] 2.42 | [3] 2.68 | [4] 2.15 | [5] 2.39 | [6] 2.16

NEANKYQISVN [FGB_Y368]
inactive: [1] 0.66 | [2] 0.702 | [3] 0.667 | [4] 0.647 | [5] 0.518 | [6] 0.918

SPPILYSFYLN [FCRL6_Y239_D244N]
inactive: [1] 1.56 | [2] 1.74 | [3] 1.58 | [4] 1.73 | [5] 1.7 | [6] 1.65

DSNPIYSQIWS [FCRL3_Y662]
inactive: [1] 0.996 | [2] 0.897 | [3] 0.662 | [4] 0.98 | [5] 1.05 | [6] 0.932

WKGSWYSMRKM [FGB_Y475]
inactive: [1] 2.71 | [2] 2.33 | [3] 2.26 | [4] 2.58 | [5] 2.23 | [6] 2.3

QAKRKYQEVSK [FES_Y156_A159V]
inactive: [1] 0.393 | [2] 0.65 | [3] 0.555 | [4] 0.44 | [5] 0.364 | [6] 0.455

KLFRVYCDMNT [FGB_Y269_P265L_YF]
inactive: [1] 0.954 | [2] 0.943 | [3] 0.838 | [4] 0.861 | [5] 0.816 | [6] 1.03

REENGYNTYAS [FGF10_Y161_I156R]
inactive: [1] 0.529 | [2] 0.43 | [3] 0.598 | [4] 0.45 | [5] 0.568 | [6] 0.615

NRDNTYNPVSE [FGA_Y127_R129P]
inactive: [1] 0.564 | [2] 0.415 | [3] 0.456 | [4] 0.396 | [5] 0.502 | [6] 0.385

KLYRVYCDMNT [FGB_Y269_P265L]
inactive: [1] 0.823 | [2] 1.03 | [3] 0.901 | [4] 0.912 | [5] 0.901 | [6] 1.12

FEEDSYSHVMA [FDPS_Y388_I391V_YF]
inactive: [1] 0.748 | [2] 0.785 | [3] 0.596 | [4] 0.68 | [5] 0.633 | [6] 0.864

SLNEGYAKDFD [FBP1_Y216_R218K]
inactive: [1] 0.472 | [2] 0.453 | [3] 0.525 | [4] 0.54 | [5] 0.548 | [6] 0.458

SSVKPYRVFCD [FGB_Y266_YF]
inactive: [1] 0.837 | [2] 0.882 | [3] 0.761 | [4] 0.537 | [5] 0.742 | [6] 0.673

AEQDCYHGAIP [FER_Y461_W460C]
inactive: [1] 1.08 | [2] 1.23 | [3] 1.03 | [4] 1.1 | [5] 1.42 | [6] 1.12

TRSFDYMEGED [FGF7_Y58_G62E_YF]
inactive: [1] 0.693 | [2] 0.655 | [3] 0.514 | [4] 0.422 | [5] 0.956 | [6] 0.861

TRSFDYTEGGD [FGF7_Y58_M59T_YF]
inactive: [1] 0.83 | [2] 0.682 | [3] 0.744 | [4] 0.392 | [5] 0.707 | [6] 0.629

QAKRKYQEASK [FES_Y156]
inactive: [1] 0.411 | [2] 0.5 | [3] 0.411 | [4] 0.522 | [5] 0.426 | [6] 0.551

IHHIDYYKKTT [FGFR1_Y653]
inactive: [1] 1.01 | [2] 0.724 | [3] 1.18 | [4] 0.625 | [5] 0.992 | [6] 0.713

GFKVRYATWSI [FGFR1_Y210_YF]
inactive: [1] 2.8 | [2] 2.65 | [3] 2.61 | [4] 2.57 | [5] 2.52 | [6] 2.67

IHHIDYFKKTT [FGFR1_Y653_YF]
inactive: [1] 1.21 | [2] 1.08 | [3] 1.33 | [4] 1.61 | [5] 1.3 | [6] 1.32

KNEIFYQCPDQ [FBXO3_Y223_V221I]
inactive: [1] 0.706 | [2] 0.867 | [3] 0.52 | [4] 0.693 | [5] 0.764 | [6] 0.777

YASALYRQRRS [FGF11_Y162]
inactive: [1] 0.26 | [2] 0.2 | [3] 0.228 | [4] 0.238 | [5] 0.223 | [6] 0.269

YEEDSYSHIMA [FDPS_Y388]
inactive: [1] 0.499 | [2] 0.441 | [3] 0.494 | [4] 0.419 | [5] 0.476 | [6] 0.508

REENGYNTFAS [FGF10_Y161_I156R_YF]
inactive: [1] 0.613 | [2] 0.457 | [3] 0.529 | [4] 0.449 | [5] 0.622 | [6] 0.576

MFFSKYDRDND [FGB_Y408_T407K]
inactive: [1] 1.26 | [2] 1.15 | [3] 1.19 | [4] 1.09 | [5] 1.2 | [6] 1.18

SSVKPYRVYCD [FGB_Y266]
inactive: [1] 0.76 | [2] 0.601 | [3] 0.721 | [4] 0.687 | [5] 0.695 | [6] 0.741

RHTRSYDFMEG [FGF7_Y56_YF]
inactive: [1] 1.15 | [2] 1.05 | [3] 1.03 | [4] 0.967 | [5] 1.12 | [6] 0.859

AEQDWYHGAIP [FER_Y461]
inactive: [1] 0.79 | [2] 0.708 | [3] 0.914 | [4] 0.714 | [5] 0.715 | [6] 0.82
